Among the data in patent US4017607A, “9,3",4"-Triacyl ester of the antibiotic SF-837 M1 substance and the production thereof” (Meiji Seika Kaisha, Ltd., priority 1974, dated 1977) are antibacterial activity values, retold here.

The subject of this test is gram-negative and gram-positive bacteria. Nature of the test: Antibacterial activity (in words). In kind it is cell-based.

On to `CCC(=O)OC1CC(=O)OC(C)CC=CC=CC(OC(C)=O)C(C)CC(CC=O)C(OC2OC(C)C(OC3CC(C)(OC(=O)CC)C(OC(C)=O)C(C)O3)C(N(C)C)C2OC(C)=O)C1OC` (stereo not shown), for which the antibacterial activity entry was “had an antibacterial activity but lower than that of 9,4"-di-acetyl-3"-propionyl SF-837 M1 substance”.
